Test results from PMC6919601, “Identification of Plasmodium dipeptidyl aminopeptidase allosteric inhibitors by high throughput screening” (PLoS ONE, 2019).
Screen size: about 110,000 compounds; about 230 (0.21%) showed an effect of 50% or more. Some of the results follow.

Target: DPAP1 (Plasmodium falciparum, UniProt Q8IIJ9)
Assay: primary screen, percent inhibition; read by cleavage of a fluorogenic dipeptide substrate; higher = more effect of the substance
Set-up: species or system P. falciparum D10 trophozoite lysates; single well
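Note: 30 min substrate incubation versus DMSO and 10 µM JCP410 controls.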

Sequence of DPAP1 (Q8IIJ9 whole entry, looked up): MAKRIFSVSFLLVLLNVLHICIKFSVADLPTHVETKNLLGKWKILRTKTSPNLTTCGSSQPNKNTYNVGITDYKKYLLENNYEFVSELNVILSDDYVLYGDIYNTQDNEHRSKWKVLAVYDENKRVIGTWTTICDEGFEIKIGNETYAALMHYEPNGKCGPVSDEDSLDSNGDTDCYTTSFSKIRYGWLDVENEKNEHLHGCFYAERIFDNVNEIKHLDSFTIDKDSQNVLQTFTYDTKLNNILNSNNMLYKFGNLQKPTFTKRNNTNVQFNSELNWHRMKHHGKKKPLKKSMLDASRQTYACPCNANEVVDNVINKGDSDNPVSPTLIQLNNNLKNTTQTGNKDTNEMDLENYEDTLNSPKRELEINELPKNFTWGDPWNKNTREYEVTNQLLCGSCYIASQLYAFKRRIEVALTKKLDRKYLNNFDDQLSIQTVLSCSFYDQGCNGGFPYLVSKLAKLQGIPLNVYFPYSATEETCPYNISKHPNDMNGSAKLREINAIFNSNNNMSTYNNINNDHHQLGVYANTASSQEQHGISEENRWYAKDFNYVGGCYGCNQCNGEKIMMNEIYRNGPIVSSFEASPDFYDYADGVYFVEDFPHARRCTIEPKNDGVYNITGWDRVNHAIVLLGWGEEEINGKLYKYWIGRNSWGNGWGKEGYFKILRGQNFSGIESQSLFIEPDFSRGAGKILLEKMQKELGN

| Structure (SMILES) | % Inhibition @ 10 uM [%] |
| --- | --- |
| O=C(O)C1C2C=CC(C2)C1C(=O)N1CCN(C/C=C/c2ccccc2)CC1 (stereo not drawn) | -2.45 |
| CC1CC(C)CN(CCCNC(=O)c2cn(C3CCCC3)c(=O)c3c2c2ccccc2n3C)C1 (stereo not drawn) | 0.163 |
| Cc1ccc(S(=O)(=O)N(C)Cc2nc(-c3ccccn3)no2)cc1 | 0.843 |
| O=C(O)c1cccc(COc2ccc(Br)cc2)c1 | 1.88 |
| Cc1cc(C)cc(C(=O)N(CCc2ccccc2)C2CC3CCC(C2)N3C)c1 (stereo not drawn) | 6.09 |
| Cc1ccc(S(=O)(=O)N2CCC(C(=O)NCCC3=CCCCC3)CC2)cc1 | -5.62 |
| COc1ccc(NC(=O)CNS(=O)(=O)c2cc(Cl)ccc2Cl)cc1 | 10.6 |
| CC(NS(=O)(=O)c1ccc(OCC(=O)NC2CCCC2)cc1)c1ccccc1 (stereo not drawn) | 1.78 |
| NC1=NC(=O)/C(=C/c2ccc(Br)s2)S1 | -6.68 |
| COC(=O)c1sc(NC(=O)CSc2nncn2C)nc1C | 9.03 |
| COCCNC(=O)c1cc(S(=O)(=O)N2CCOCC2)ccc1C | 0.503 |
| Cn1c(=O)c2c(nc(NCCN3CCOCC3)n2Cc2cccc(F)c2)n(C)c1=O | -6.98 |
| C=CCNC(=S)Nc1ccccc1 | 1.49 |
| Cc1cc2cc(CNC(=O)c3ccccc3C(=O)O)ccc2[nH]1 | 1.55 |
| CC1=C(C(=O)Nc2ccc(Br)cn2)C(c2ccccc2Cl)C2=C(O)CCCC2=N1 (stereo not drawn) | -1.1 |
| Cc1cc(N2CCN(S(=O)(=O)c3ccc(Cl)c(Cl)c3)CC2)c2ccccc2n1 | -7.37 |
| CC(C)c1ccc(CN2CCCC(C(N)=O)C2)cc1 (stereo not drawn) | -1.21 |
| NS(=O)(=O)c1ccc(-n2ncc3c(O)nc(SCC(=O)NCc4ccco4)nc32)cc1 | 1.26 |
| CCOC(=O)N1CCC(c2[nH]nc(O)c2C)CC1 | -4.69 |
| Cc1ccc(OCC(=O)Nc2ncccc2C)cc1 | -0.0217 |
| Nc1ccc(-c2cc(C(=O)O)c3ccccc3n2)cc1 | 6.96 |

| Structure (SMILES) | % Inhibition @ 10 uM [%] |
| --- | --- |
| C#CCN1C(=O)C(O)(CC(=O)c2ccc(CC)cc2)c2ccccc21 (stereo not drawn) | -0.992 |
| COc1ccc(S(=O)(=O)Nc2cc(S(N)(=O)=O)ccc2C)cc1 | 2.08 |
| COC(=O)C1=CN(Cc2ccc(OC)c(OC)c2)C=C(C(=O)OC)C1c1cccc(O)c1 | -5.05 |
| CCC1C(=O)C(C)(C)C(=O)OC1c1ccc(Cl)cc1Cl (stereo not drawn) | 7.1 |
| CCOC(=O)c1cnc2ccc(OCC)cc2c1N(C)Cc1ccccc1 | 0.231 |
| CC1CCN(S(=O)(=O)c2ccc3nc(-c4cccnc4)cc(C(=O)NC4CC4)c3c2)CC1 | -0.971 |
| Cn1c(=O)[nH]c(=O)c2c1nc(SCC(=O)Nc1ccccc1)n2CCCc1ccccc1 | -4.76 |
| O=C(O)C1CC(c2ccccc2)=Nc2ccccc2S1 (stereo not drawn) | -0.0372 |
| CCCN(CCO)CCCc1ccccc1 | -3.15 |
| N#Cc1c(NC(=O)c2ccncc2)sc2c1CCCCCC2 | 2.36 |
| COc1ccc(C2C3=C(O)CCCC3=Nc3ccc4nc(C)ccc4c32)c(OC)c1 (stereo not drawn) | 6.98 |
| COC(=O)c1[nH]c2c(c1C)C(=O)CC(c1ccccc1Cl)C2 (stereo not drawn) | -0.668 |
| O=C(Cn1c(=O)[nH]c2ccsc2c1=O)NCc1ccccc1Cl | 0.121 |
| CCN1C(=O)C(=CNc2ccc3c(c2)-c2ccccc2C3)C(=O)N(CC)C1=O | -0.996 |
| Cc1cccc(C)c1NC(=O)C1(NC(=O)C(C)NC(=O)c2ccccc2C(=O)O)CCCC1 (stereo not drawn) | 7.66 |
| Cc1ccc(S(=O)(=O)N(CC(=O)NC2CC3CCC2C3)c2cccc(Cl)c2)cc1 (stereo not drawn) | 8.87 |
| Cc1ccc(Cl)cc1N1CCN(C(=O)c2ccc(N(C)S(C)(=O)=O)cc2)CC1 | 4.11 |
| Cc1cccc(C)c1OCc1nc2c3cnn(Cc4ccccc4)c3ncn2n1 | -2.14 |
| COc1ccc(CCn2c(=O)c3cccnc3n(Cc3cccc(C(F)(F)F)c3)c2=O)cc1OC | -7.18 |
| O=C(NCCc1ccccc1)c1ccccc1[SH](=O)=O | -10.6 |
| Cc1cccc(C2CC(=O)NC3=C2C(=O)CC(c2ccccc2Cl)C3)c1 (stereo not drawn) | 1.97 |

| Structure (SMILES) | % Inhibition @ 10 uM [%] |
| --- | --- |
| CCCCNC(=O)CSc1nc2ccsc2c(=O)n1C1CCN(C(=O)OCC)CC1 | -2.92 |
| CCOc1ccc(CCNC(=O)CCCn2nc(C)n3c(cc4sccc43)c2=O)cc1OCC | -1.58 |
| COc1ccccc1-n1c(S)nnc1-c1cc(C)nn1C | 5.52 |
| CC(C)CCN1CC(C(=O)NC(C)C)CC1=O (stereo not drawn) | 0.514 |
| Cc1ccc(Sc2ccc(C=C3C(=O)NC(=O)NC3=O)o2)cc1 | -4.11 |
| Cc1nn(CCCC(=O)N2CCC(C(N)=O)CC2)c(=O)c2c1sc1ccccc12 | -4.78 |
| COc1ccc(C2C(C(=O)c3ccco3)=C(O)C(=O)N2CC2CCCO2)cc1 (stereo not drawn) | 3.66 |
| COc1cccc(C(=O)Nc2cc(OC)c(Cl)cc2OC)c1 | -3.39 |
| COC(=O)c1cc(=O)n(Cc2ccc(OC)cc2)/c(=N/Cc2ccc(OC)cc2)s1 | -5.25 |
| O=C(Nc1nnc(SCc2ccccc2)s1)c1cc2ccccc2c(=O)o1 | -9.16 |
| COC(=O)c1cc(-c2c(C)nn(-c3ccccc3)c2C)[nH]n1 | 0.0289 |
| O=C(CN1CCCC1)Nc1ccc(OC(F)(F)Cl)cc1 | 0.475 |
| CC(=O)c1cccc(NC(=O)COc2cc(C)ccc2C(C)C)c1 | 0.035 |
| COC(=O)c1ccccc1NC(=O)c1ccc(F)cc1 | -6.68 |
| CN(C)c1ccc(C2NC(=O)NC(O)(C(F)(F)F)C2C(=O)c2ccccc2)cc1 (stereo not drawn) | 5.29 |
| COc1ccc2c(CNCc3ccco3)c(C(=O)O)n(Cc3ccccc3F)c2c1 | -8.18 |
| CCOc1ccc(-c2cn3c(n2)sc2cc(C(=O)N4CCCCCC4)ccc23)cc1 | 17.2 |
| CCOC(=O)c1cnn(-c2ccc(C)cc2)c1C1CCN(C(=O)OC(C)(C)C)CC1 | -1.03 |
| CC(NC(=O)CSc1nc(N)cc(N)n1)c1ccccc1 (stereo not drawn) | -9.93 |
| CSc1nc(Oc2ccc(Cl)cc2)cc(-n2nc(C)c(C#N)c2N)n1 | -0.725 |
| COc1ccc(CNC(=O)CN(c2c(C)cccc2C)S(C)(=O)=O)cc1 | -2.83 |
